# According to the supplement of paper PMC8728848:
# The list shows a part of the results.
# Legend:
# Assay in all cases: glycan array binding signal (z-score within array); higher = stronger binding
# Details in all cases: glycan notation: IUPAC condensed, linker removed
# [1] = target: Gal(b1-3)[GlcNAc(b1-6)]GalNAc
# Summary of the method: (§1)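 Columns mapping to the same glycan were averaged after glycan names were converted to IUPAC-condensed notation. The data come from 3228 arrays in the Consortium for Functional Glycomics database, limited to those with an available protein sequence. Binding is reported as a within-array Z-score averaged across arrays of one protein sequence and across linkers.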
# [2] = target: Gal(b1-3)[Neu5Ac(a2-6)]GalNAc
# Summary of the method: as §1
# [3] = target: Gal(b1-3)[Neu5Ac(a2-6)]GlcNAc(b1-4)Gal(b1-4)Glc
# Summary of the method: as §1
# [4] = target: Gal(b1-3)[Neu5Ac(b2-6)]GalNAc
# Summary of the method: as §1
# [5] = target: Gal(b1-4)GalNAc(a1-3)[Fuc(a1-2)]Gal(b1-4)GlcNAc
# Summary of the method: as §1
# Gal(b1-4)Glc = target: Gal(b1-4)Glc
# Summary of the method: as §1
# Gal(b1-4)Glc6S = target: Gal(b1-4)Glc6S
# Summary of the method: as §1
# Gal(b1-4)GlcNAc = target: Gal(b1-4)GlcNAc
# Summary of the method: as §1
# [6] = target: Gal(b1-4)GlcNAc(b1-3)Gal(b1-4)Glc
# Summary of the method: as §1
# [7] = target: Gal(b1-4)GlcNAc(b1-3)Gal(b1-4)GlcNAc
# Summary of the method: as §1
# [8] = target: Gal(b1-4)GlcNAc(b1-3)Gal(b1-4)GlcNAc(b1-3)Gal(b1-4)GlcNAc
# Summary of the method: as §1
# [9] = target: Gal(b1-4)GlcNAc(b1-3)Gal(b1-4)[Fuc(a1-3)]GlcNAc(b1-3)Gal(b1-4)[Fuc(a1-3)]GlcNAc
# Summary of the method: as §1
# [10] = target: Gal(b1-4)GlcNAc(b1-3)GalNAc
# Summary of the method: as §1
# [11] = target: Gal(b1-4)GlcNAc(b1-3)[Gal(b1-4)GlcNAc(b1-6)]GalNAc
# Summary of the method: as §1
# [12] = target: Gal(b1-4)GlcNAc(b1-6)GalNAc
# Summary of the method: as §1
# [13] = target: Gal(b1-4)GlcNAc(b1-6)[Gal(b1-3)]GalNAc
# Summary of the method: as §1
# Gal3S(b1-3)GalNAc = target: Gal3S(b1-3)GalNAc
# Summary of the method: as §1
# Gal3S(b1-3)GlcNAc = target: Gal3S(b1-3)GlcNAc
# Summary of the method: as §1
# [14] = target: Gal3S(b1-3)[Fuc(a1-4)]GlcNAc
# Summary of the method: as §1
# Gal3S(b1-4)Glc = target: Gal3S(b1-4)Glc
# Summary of the method: as §1
# Gal3S(b1-4)Glc6S = target: Gal3S(b1-4)Glc6S
# Summary of the method: as §1
# Gal3S(b1-4)GlcNAc = target: Gal3S(b1-4)GlcNAc
# Summary of the method: as §1
# Gal4S(b1-4)GlcNAc = target: Gal4S(b1-4)GlcNAc
# Summary of the method: as §1
# Gal6S(b1-4)Glc = target: Gal6S(b1-4)Glc
# Summary of the method: as §1
# Gal6S(b1-4)Glc6S = target: Gal6S(b1-4)Glc6S
# Summary of the method: as §1
# GalNAc(a1-3)Gal = target: GalNAc(a1-3)Gal
# Summary of the method: as §1
# GalNAc(a1-3)GalNAc = target: GalNAc(a1-3)GalNAc
# Summary of the method: as §1
# GalNAc(b1-3)GalNAc = target: GalNAc(b1-3)GalNAc
# Summary of the method: as §1
# GalNAc(b1-4)GlcNAc = target: GalNAc(b1-4)GlcNAc
# Summary of the method: as §1
# Glc(a1-4)Glc = target: Glc(a1-4)Glc
# Summary of the method: as §1
# Glc(b1-4)Glc = target: Glc(b1-4)Glc
# Summary of the method: as §1
# Glc(b1-6)Glc = target: Glc(b1-6)Glc
# Summary of the method: as §1
# [15] = target: GlcNAc(b1-2)Gal(b1-3)GalNAc
# Summary of the method: as §1
# GlcNAc(b1-3)Gal = target: GlcNAc(b1-3)Gal
# Summary of the method: as §1
# [16] = target: GlcNAc(b1-3)Gal(b1-3)GalNAc
# Summary of the method: as §1
# GlcNAc(b1-3)Gal(b1-4)Glc = target: GlcNAc(b1-3)Gal(b1-4)Glc
# Summary of the method: as §1
# [17] = target: GlcNAc(b1-3)Gal(b1-4)GlcNAc
# Summary of the method: as §1
# [18] = target: GlcNAc(b1-3)[GlcNAc(b1-6)]GalNAc
# Summary of the method: as §1
# [19] = target: GlcNAc(b1-3)[GlcNAc(b1-6)]GlcNAc(b1-4)GlcNAc
# Summary of the method: as §1
# [20] = target: GlcNAc(b1-4)GlcNAc(b1-4)GlcNAc
# Summary of the method: as §1
# [21] = target: GlcNAc(b1-4)[GlcNAc(b1-6)]GalNAc
# Summary of the method: as §1
# GlcNAc(b1-6)GalNAc = target: GlcNAc(b1-6)GalNAc
# Summary of the method: as §1
# Kdn(a2-3)Gal(b1-3)GlcNAc = target: Kdn(a2-3)Gal(b1-3)GlcNAc
# Summary of the method: as §1
# Kdn(a2-3)Gal(b1-4)GlcNAc = target: Kdn(a2-3)Gal(b1-4)GlcNAc
# Summary of the method: as §1
# [22] = target: Man(a1-2)Man(a1-2)Man(a1-3)Man
# Summary of the method: as §1
binder,measurement,setting,value
"Siglec-G (Mus musculus), Q80ZE3 (protein) MSLLLFLLSFLLDGPQGQMESYFLQVQRIVKAQEGLCIFVPCSFSSPEGKWLNRSPLYGYWFKGIRKPSLSFPVATNNKDKVLEWEARGRFQLLGDISKKNCSLLIKDVQWGDSTNYFFRMERGFERFSFKEEFRLQVEALTQKPDIFIPEVLEPGEPVTVVCLFSWTFNQCPAPSFSWMGDAVSFQESRPHTSNYSVLSFIPGLQHHDTELTCQLDFSRMSTQRTVRLRVAYAPRSLAISIFHDNVSVPDLHENPSHLEVQQGQSLRLLCTADSQPPATLSWVLEDQVLSWSSPVGSRTLALELPWVKAGDSGHYTCQAENRLGSQQHTLDLSVLYPPQDLRVTVSQANRTVLEILRNAISLPVLEGQSLCLVCVTYSNPPANVSWAWVTQTLIPIQSSEPGVLELPLVQREHEGEFTCAAQNPLGAQRISLSLSVHYPPQMSSPSCSWEAKGLHCNCSSRAWPAPSLRWRLGEGLLEGNSSNASFTVTFSSLGPWVNSSLSLLQELGPSLWLSCESWNTHGAQTTSVLLLPDKDSATAFSKGAVLGFGITALLALCLIVVIVKTLQKKGTQEEPSRPKLSRGSTILDYINVVPKTRSLARNWKAEPDAPSRSSPLDTHFPKPKKKQKDPHFTYPGCPDPTSSSQVPVSENNPEELHYAALNFSRLRLQETQDPQDTYSDYTEVRVH",glycan array binding signal (z-score),[1],-0.221
same,glycan array binding signal (z-score),[2],-0.38
same,glycan array binding signal (z-score),[3],-0.223
same,glycan array binding signal (z-score),[4],-0.021
same,glycan array binding signal (z-score),[5],0.38
same,glycan array binding signal (z-score),Gal(b1-4)Glc,-0.105
same,glycan array binding signal (z-score),Gal(b1-4)Glc6S,-0.352
same,glycan array binding signal (z-score),Gal(b1-4)GlcNAc,-0.139
same,glycan array binding signal (z-score),[6],-0.335
same,glycan array binding signal (z-score),[7],-0.113
same,glycan array binding signal (z-score),[8],-0.074
same,glycan array binding signal (z-score),[9],0.146
same,glycan array binding signal (z-score),[10],-0.134
same,glycan array binding signal (z-score),[11],-0.122
same,glycan array binding signal (z-score),[12],-0.381
same,glycan array binding signal (z-score),[13],-0.348
same,glycan array binding signal (z-score),Gal3S(b1-3)GalNAc,-0.169
same,glycan array binding signal (z-score),Gal3S(b1-3)GlcNAc,-0.366
same,glycan array binding signal (z-score),[14],-0.354
same,glycan array binding signal (z-score),Gal3S(b1-4)Glc,-0.297
same,glycan array binding signal (z-score),Gal3S(b1-4)Glc6S,-0.346
same,glycan array binding signal (z-score),Gal3S(b1-4)GlcNAc,-0.391
same,glycan array binding signal (z-score),Gal4S(b1-4)GlcNAc,0.137
same,glycan array binding signal (z-score),Gal6S(b1-4)Glc,-0.124
same,glycan array binding signal (z-score),Gal6S(b1-4)Glc6S,0.228
same,glycan array binding signal (z-score),GalNAc(a1-3)Gal,-0.271
same,glycan array binding signal (z-score),GalNAc(a1-3)GalNAc,-0.318
same,glycan array binding signal (z-score),GalNAc(b1-3)GalNAc,-0.269
same,glycan array binding signal (z-score),GalNAc(b1-4)GlcNAc,-0.278
same,glycan array binding signal (z-score),Glc(a1-4)Glc,-0.253
same,glycan array binding signal (z-score),Glc(b1-4)Glc,0.012
same,glycan array binding signal (z-score),Glc(b1-6)Glc,-0.045
same,glycan array binding signal (z-score),[15],-0.21
same,glycan array binding signal (z-score),GlcNAc(b1-3)Gal,-0.264
same,glycan array binding signal (z-score),[16],-0.223
same,glycan array binding signal (z-score),GlcNAc(b1-3)Gal(b1-4)Glc,-0.034
same,glycan array binding signal (z-score),[17],-0.309
same,glycan array binding signal (z-score),[18],-0.245
same,glycan array binding signal (z-score),[19],-0.096
same,glycan array binding signal (z-score),[20],-0.138
same,glycan array binding signal (z-score),[21],-0.034
same,glycan array binding signal (z-score),GlcNAc(b1-6)GalNAc,-0.411
same,glycan array binding signal (z-score),Kdn(a2-3)Gal(b1-3)GlcNAc,0.07
same,glycan array binding signal (z-score),Kdn(a2-3)Gal(b1-4)GlcNAc,0.326
same,glycan array binding signal (z-score),[22],-0.171
